# Experimental data from PubChem BioAssay AID485344 (National Center for Advancing Translational Sciences (NCATS), 2010).
# About 6,900 (2%) of roughly 340,000 compounds were called active. Rule as the data show it: active = inhibition above about 30%; inactive = below that, where a call was filed. This is a selection; strong and weak results do not stand in their true shares. The source gives no active or inactive call for entries shown without one.
# Biological target: D(2) dopamine receptor (Homo sapiens) (UniProt P14416)
# Assay: HTS Assay for Allosteric Antagonists of the Human D2 Dopamine Receptor: Primary Screen for Antagonists; also: 0% is about no effect
# Details: HEK293 TREx D2 cells, calcium flux, dopamine EC80; at 10 µM; stronger effect = higher value
# Outline: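 Dopamine at EC80 is the agonist stimulus; test compounds precede it by 180 s. Calcium flux read kinetically in a force-coupled, inducible HEK293 T-REx D2 cell line.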
# Chain of UniProt P14416 (P14416 whole entry, looked up): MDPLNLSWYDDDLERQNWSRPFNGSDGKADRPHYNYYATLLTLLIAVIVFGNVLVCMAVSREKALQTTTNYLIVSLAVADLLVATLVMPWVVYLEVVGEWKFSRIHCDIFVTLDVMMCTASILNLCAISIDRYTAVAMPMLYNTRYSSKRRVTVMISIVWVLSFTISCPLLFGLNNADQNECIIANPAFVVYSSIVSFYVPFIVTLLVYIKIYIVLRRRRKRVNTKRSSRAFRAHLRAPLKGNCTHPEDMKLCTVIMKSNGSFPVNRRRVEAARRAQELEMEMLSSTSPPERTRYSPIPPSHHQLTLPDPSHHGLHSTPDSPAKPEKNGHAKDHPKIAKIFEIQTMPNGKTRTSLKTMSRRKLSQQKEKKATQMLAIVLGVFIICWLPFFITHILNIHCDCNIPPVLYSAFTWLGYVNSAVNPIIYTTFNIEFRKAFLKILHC
row,SMILES,inhibition
1,CC(=O)N1CCc2cc(CNC(=O)Cc3ccc(F)cc3)ccc21,-5.29%
2,CCOc1ccccc1CNC(=O)C1CCN(C(=O)N2CC(CC)Oc3ccc(C)cc32)CC1 (stereo unspecified),0.602%
3,COc1cccc(CNC(=O)C(=O)NCC(c2ccco2)S(=O)(=O)c2cccs2)c1 (stereo unspecified),2.68%
4,CC(C)(C)C(=O)Cn1c(=O)n(-c2ccc(Cl)cc2)c(=O)c2c3c(sc21)CCCC3,10.5%
5,O=C(/C=C/c1ccccc1)N1CCN(Cc2cc(=O)n3nc(-c4ccccc4F)sc3n2)CC1,5.32%
6,COc1ccc(N2CC(NC(=O)/C=C\c3ccccc3)CC2=O)cc1 (stereo unspecified),-12.9%
7,O=C(Cn1c(SCCOc2ccccc2)nc2ccccc21)N1CCOCC1,2.07%
8,COc1ccccc1N1CCN(C(=O)c2nc(SC)ncc2Cl)CC1,-6.32%
9,COc1ccc(C)cc1NC(=O)CCS(=O)(=O)c1cc2c3c(c1)CCN3C(=O)CC2,-3.03%
10,CCOc1ccc(Oc2nc(NCC(C)C)nc(N3CCOCC3)n2)nn1,1.29%
11,CCOC(=O)N1CCc2c(sc(NCc3sccc3C)c2C(=O)Nc2ccc(OC)cc2OC)C1,2.28%
12,CCCCCNC(=O)C1CC=CCC1C(=O)O (stereo unspecified),active: 36.1%
13,Cc1cc(C)cc(NC(=O)C(Cc2ccccc2)NS(=O)(=O)c2ccc3c(c2)c(=O)n(C)c(=O)n3C)c1 (stereo unspecified),7.57%
14,O=C(NCc1ccccc1CN1CCCC1)c1ccc(OCc2cscn2)cc1,active: 34.8%
15,Cc1ccc(CN2CCC(CNC(=O)Nc3ccc(Cl)cc3)C2)cc1 (stereo unspecified),-9.43%
16,CC(C)(C)OC(=O)N1CCC(c2c(C(=O)NCCN3CCc4ccccc4C3)cnn2-c2ccc(F)cc2F)CC1,-23.4%
17,Cc1ccc(-n2c(=O)c3cccnc3n2CC(=O)Nc2ccc(Br)cc2)cc1C,-14.7%
18,Cc1ccc(NC(=O)CCn2c(=O)c3cccn3c3ccccc32)cc1C,3.34%
19,CCC(=O)N1CCc2cc(Br)cc(S(=O)(=O)CCC(=O)NCCc3cccc(C)c3)c21,-12.3%
20,c1ccc(CCNc2cnccn2)cc1,active: 37.7%
21,C/C(CC(=O)Nc1ccccn1)=N\NC(=O)c1ccccc1O,active: 46.9%

row,SMILES,inhibition
1,Cc1cc(Cl)ccc1OCc1nc(-c2ccc(-n3cccc3)cc2)no1,-2.84%
2,Cc1c(C(=O)NCC(c2ccc(Cl)cc2)N2CCOCC2)oc2ccccc12 (stereo unspecified),-9.48%
3,CCCCOc1ccc(C(=O)Oc2cc(C)[nH]c(=O)c2[N+](=O)[O-])cc1,active: 77.1%
4,CCOc1ccc(N2CC(c3nc4ccccc4n3CCCOc3ccccc3)CC2=O)cc1 (stereo unspecified),6.16%
5,CCCCOC(=O)c1ccc(NC(=O)c2cc3c(=O)n4cccc(C)c4nc3s2)cc1,-10.6%
6,CCCCN(C)CCNC(=O)c1c2c(nc3ccccc13)C(=O)N(C1CCCCC1)C2,6.26%
7,CCOc1ccc(NC(=O)c2cnc(N3CCCC3)nc2C)cc1,-3.91%
8,COc1ccc(CNc2nc3c(-c4cccc(C)c4)nnn3c3ccccc23)cc1,12.6%
9,CCOc1ccc(CCNC(=O)c2cn(C)c3ccc(S(=O)(=O)N4CCCCCC4)cc3c2=O)cc1OCC,-5.06%
10,Cc1nn(CC(=O)N2CCC(C)CC2)c(=O)c2cc3sccc3n12,-6.75%
11,COc1ccc(NC2=NCC(=O)N2c2ccccc2F)cc1,active: 36.6%
12,COc1ccccc1NC(=O)c1c(NCc2ccc(OC)c(OC)c2OC)sc2c1CCC2,-2.54%
13,CCOC(=O)c1c(C)[nH]c(C)c1S(=O)(=O)N(C)CC(=O)N1CCN(c2ccccc2)CC1,3.07%
14,CC(C)c1ccc(NC(=O)Cn2cc(S(=O)(=O)N3CCN(c4ccccc4F)CC3)c3ccccc3c2=O)cc1,12.7%
15,Cc1ccc(CN(C(=O)COc2ccc([N+](=O)[O-])cc2)c2ccccn2)cc1,-10.8%
16,CCN(CC)CCCNC(=O)c1cnc(SC)nc1-c1ccccc1,9.8%
17,CCN(CC)CCCNC(=O)c1cn(C)c2ccc(S(=O)(=O)N(C)C3CCCCC3)cc2c1=O,8.22%
18,CCOCCc1nn2c(=O)cc(COC(=O)CNC(=O)c3cccc(C)c3)nc2s1,-12.5%
19,Cc1ccc2c(=O)cc(C(=O)Nc3nc4ccc(Cl)cc4s3)oc2c1C,14.8%
20,CCN(C(=O)CSc1nc2ncccc2[nH]1)c1ccc(C(C)C)cc1,1.09%
21,COc1cccc(-c2ncnn2-c2sc3c(c2C#N)CCCCC3)c1OC,14.8%

row,SMILES,inhibition
1,O=C(COc1ccc(Cl)cc1)Nc1nnc(S(=O)(=O)N2CCc3ccccc32)s1,16.7%
2,CC1=C(C#N)C(NC(=O)c2ccccc2Cl)(C(F)(F)F)C(=O)N1 (stereo unspecified),-13.6%
3,CCc1ccc(NC(=O)c2sc3nc(C)c(Cl)c(C)c3c2NC(=O)c2ccccc2OC)cc1,-2.01%
4,COc1ccc(OC)c(NC(=O)C2=C(C)C(=O)OC23CCCCCC3)c1,-6.22%
5,Cc1ccc(S(=O)(=O)c2nnn3c2nc(N2CCN(c4ccccc4F)CC2)c2cc(Cl)ccc23)cc1C,3.48%
6,O=C(c1ccc2c(c1)N(Cc1cccc(F)c1)C(=O)c1ccccc1S2)N1CCOCC1,-5.3%
7,COc1ccc(/C=C/C(=O)Nc2ccc3nc4c(c(Nc5ccccc5OC)c3c2)CCCC4)cc1,11%
8,Cc1ccccc1CN1C(=O)c2ccccc2S(=O)c2ccc(C(=O)NC3CCC(C)CC3)cc21 (stereo unspecified),12.4%
9,Cc1ccc(S(=O)(=O)c2nnn3c2nc(N2CCCC2)c2sccc23)cc1C,14.8%
10,Cc1cc(C)n(CCc2nc3c4ccccc4nc(N4CCN(c5ccccc5)CC4)n3n2)n1,-14.3%
11,COc1cccc(CNC(=O)C2CCCCN2S(=O)(=O)c2ccc(F)cc2)c1 (stereo unspecified),15.1%
12,CCOC(=O)C1(C)C=C(Nc2cccc(C(=O)O)c2)C(=O)N1c1cccc(C(=O)O)c1 (stereo unspecified),-4.66%
13,CCCNCC1COc2ccccc2O1 (stereo unspecified),active: 32.5%
14,COc1ccc(-c2noc(-c3ccc(N4CCN(c5ccccc5)CC4)c([N+](=O)[O-])c3)n2)cc1OC,-9.38%
15,Cc1cc(F)ccc1NS(=O)(=O)c1ccc(-n2cccn2)cc1,5.6%
16,Cc1ccc(CNS(=O)(=O)c2ccc3[nH]c4c(c3c2)CCCC4)cc1,17.9%
17,CCCCc1nn2c(=O)cc(COC(=O)c3ccc(NC(=O)c4ccccc4C)cc3)nc2s1,1.81%
18,O=C1CS(=O)(=O)C2(C(=O)N(Cc3ccccc3)c3ccccc32)N1c1ccccc1 (stereo unspecified),-14.2%
19,COc1cc2c(cc1OC)C(COc1ccccc1OC)N(C(=O)COc1ccc(Cl)cc1)CC2 (stereo unspecified),5.64%
